By % Inhibition is commonly meant the relative decrease from the control value, in per cent.

The structures appear in SMILES notation. Hit rate of the full screen: of about 150,000 compounds, about 540 (0.36%) showed an effect of 50% or more. This is one part of the list.

The test system of the assay is Plasmodium falciparum. Description: Primary screen in NF54 nanoGlo assay, in single point, at 2uM, 72h; a lower Z score goes with more inhibition. In kind it is functional, Erythrocyte. As to conditions: timepoint 72 hour.
Consider `CCN1CCN(CC(=O)N2N=C(c3ccc(C)cc3)C[C@H]2c2ccc3c(c2)OCO3)CC1`, for which the “% Inhibition” value is -12% and the Z score came out at 1.79.
On the same counts, the results for `O=C(c1ccc(-c2nccs2)cc1)N1CCN(Cc2nnc[nH]2)CC1` are -5% and 0.71.
Consider `O=C(O)COc1ccc(-c2cnccn2)cc1CN1CCC[C@H]1c1ccco1`, for which the “% Inhibition” value was 0% and the Z score is given as -0.04.
On the same counts, the results for `CCN(Cc1ccc2ccn(CC)c2c1)[C@@H](C)CCO` are -10% and 1.27.
For `O=C(Nc1nnc2ccccn12)c1cc2ccccc2o1`, in that order: 11% and -1.22.
On the same counts, the results for `O=C(Cc1ccc(Cl)cc1)N1CCCN(c2nnc3ccc(C(F)(F)F)cn23)CC1` are 27% and -3.04.
Turning to `CN1CC[C@@H]2CN(C(=O)c3cccc(C(F)(F)F)c3)C[C@@H]21`, the “% Inhibition” value is -16% and the Z score was found to be 1.46.
For `O=C(CCc1cn[nH]c1)NC[C@H]1CCCc2ccc(C(=O)O)cc21`, in that order: -13% and 1.37.
Turning to `O=C(NCC(O)c1c(Cl)cccc1Cl)C1CCOC1` (centres undefined), the “% Inhibition” value was -15% and the Z score came to 1.51.
As for `O=C(CC[C@H]1CCCOC1)NCc1noc(-c2ccsc2)n1`, the “% Inhibition” value is -9% and the Z score worked out at 1.33.
On to `COCCOCC(=O)N[C@@H](C)c1ccccc1`, for which the “% Inhibition” value is reported as -6% and the Z score stood at 0.69.
On the same counts, the results for `CC[C@@H](C(=O)NCCc1sccc1C)n1cccn1` are -9% and 0.94.
For `CC(C)(CN1CCCn2nc(CNC(=O)C3CCC3)cc2C1)N1CCCCC1`, in that order: -1% and 0.09.
For `CNC(=O)[C@@H](C)CN(C)c1ncc(F)cn1`, in that order: -3% and 0.5.
With `CN(C)CCCC(=O)N1CCc2[nH]nc(-c3ccc4c(c3)OC(F)(F)O4)c2C1`, the “% Inhibition” value was 4% and the Z score was -0.49.
On to `Cc1ccncc1C(=O)NC[C@@H]1CN(C)C(=O)[C@H](c2ccccc2)N1Cc1cccnc1`, for which the “% Inhibition” value is recorded as 0% and the Z score is 0.
For `CC(C)(NC(=O)[C@H]1CC1(C)C)c1ccc(F)c(F)c1`, in that order: -3% and 0.56.
On the same counts, the results for `Cc1nnc(-c2cccc(NC(=O)[C@@H]3CCCCN3Cc3cncs3)c2)s1` are -17% and 2.13.
In the case of `CCCc1cc(C(=O)N2CCc3[nH]nc(-c4cccc5ccccc45)c3C2)[nH]n1`, the “% Inhibition” value is recorded as -14% and the Z score is given as 1.35.
For `c1ccc(-c2noc(-c3ccc(NCc4cccs4)nn3)n2)cc1`, the “% Inhibition” value is listed as 9% and the Z score was -1.03.
Take `O=C1NCCN1CCNCc1cn(CCOc2ccccc2F)c2ccccc12`: the “% Inhibition” value is reported as -14% and the Z score is 2.35.
On the same counts, the results for `CC(C)c1ccc(C=CCC(=O)N(C)[C@H]2CCS(=O)(=O)C2)cc1` are 17% and -1.89.
As to `CN(CCc1cccs1)C(=O)[C@H]1CC[C@H](Nc2cnccn2)CC1`, the “% Inhibition” value is -14% and the Z score was 1.68.
For the molecule `C[C@H](CNCc1nnc(C2CC2)o1)Cc1ccccc1`, the “% Inhibition” value is -9% and the Z score is 1.44.
On the same counts, the results for `Cc1cccc(CS(=O)(=O)N(CCO)C2CC2)c1` are -11% and 0.98.
On the same counts, the results for `Cc1ccc(-c2noc(Cn3ncn(C)c3=O)n2)cc1` are -3% and 0.51.
On the same counts, the results for `CCCn1c(CCc2ccc(NS(=O)(=O)c3ccc(F)c(Cl)c3)cc2)nc2ccccc21` are -5% and 0.79.
Regarding `CC(C)c1nnc(CCC(=O)N2CCC[C@H](C)c3ccccc32)o1`, the “% Inhibition” value is -16% and the Z score was 1.73.
As to `Cc1n[nH]c(C)c1C(=O)NCc1nnc2cc(C(F)(F)F)ccn12`, the “% Inhibition” value came to 23% and the Z score is -2.95.
`Cc1ncsc1C(=O)OCC(=O)Nc1ccc(S(N)(=O)=O)cc1`: the “% Inhibition” value was -4% and the Z score is reported as 0.34.
Regarding `CN1CCN([C@H]2CCN(Cc3ccc(Cl)o3)C2)CC1`, the “% Inhibition” value was -1% and the Z score was 0.12.
On the same counts, the results for `Cc1nc2c(F)cccc2cc1C(=O)NC1CCN(C[C@H]2CCOC2)CC1` are -13% and 1.68.
For `Cc1nnc(N(C)Cc2ccccc2CN(C)C)s1`, the “% Inhibition” value is on record as -7% and the Z score is given as 0.9.
For the molecule `O=C(C1CCCC1)N(CCN1CCOCC1)CC(=O)N1N=C(c2ccc(F)cc2)C[C@H]1c1ccc(F)cc1`, the “% Inhibition” value is -22% and the Z score is given as 2.09.
On the same counts, the results for `COC[C@H](C)N1CCN(C(=O)c2cc3ccccc3c(=O)[nH]2)CC1` are 2% and -0.24.
On the same counts, the results for `O=C(CCn1ccccc1=O)NCC1(c2cccc(Cl)c2)CC1` are 4% and -0.47.
Turning to `O=C(NCCN1CCCOC1=O)c1cccc(-c2cc(F)ccc2O)c1`, the “% Inhibition” value was -5% and the Z score is 0.66.
For `COC(=O)[C@](C)(NC(C)=O)c1cc(F)ccc1F`, the “% Inhibition” value is -3% and the Z score worked out at 0.53.
For `O=C(NCCN1CCCOCC1)c1ncccc1NCC1CCC1`, in that order: 26% and -2.96.
In the case of `CC[C@H](O)Cn1nc(C2(c3ccccc3)CC2)nc1CCn1ccc(C)n1`, the “% Inhibition” value was -2% and the Z score stood at 0.34.
For the molecule `O=C1c2cccc3[nH]cc(c23)C=NN1CN1CCN(c2ccccc2)CC1`, the “% Inhibition” value amounted to 1% and the Z score is recorded as -0.13.
On the same counts, the results for `COCc1nc(NC2CCC(NC(=O)c3ccccc3)CC2)c2c(C)nn(-c3ccccc3)c2n1` (centres undefined) are 3% and -0.41.
